In article PMC3690481 (2013):
Values belong to the binder of their own block, whether it stands above or below them.

Molecular target: FlAsH-tagged Met1-diUb (UniProt P0CG48 in part; P0CG48 in part, Lumio Green (FlAsH) on the C-terminal WCCPGCC motif)
Experiment: FP

Kd: 24.5 µM
B1: OTULIN C129A W96A (enzyme)
chain: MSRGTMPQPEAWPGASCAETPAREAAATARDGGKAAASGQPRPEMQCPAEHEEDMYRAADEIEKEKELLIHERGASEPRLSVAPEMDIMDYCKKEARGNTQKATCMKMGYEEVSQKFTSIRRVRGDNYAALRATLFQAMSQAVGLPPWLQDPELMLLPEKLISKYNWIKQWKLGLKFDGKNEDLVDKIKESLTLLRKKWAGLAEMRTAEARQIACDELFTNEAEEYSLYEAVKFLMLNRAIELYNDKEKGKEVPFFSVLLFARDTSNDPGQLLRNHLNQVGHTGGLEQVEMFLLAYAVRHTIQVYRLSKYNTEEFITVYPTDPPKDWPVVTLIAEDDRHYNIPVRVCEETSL

Kd: 27.7 µM
B2: OTULIN C129A E314R (enzyme)
chain: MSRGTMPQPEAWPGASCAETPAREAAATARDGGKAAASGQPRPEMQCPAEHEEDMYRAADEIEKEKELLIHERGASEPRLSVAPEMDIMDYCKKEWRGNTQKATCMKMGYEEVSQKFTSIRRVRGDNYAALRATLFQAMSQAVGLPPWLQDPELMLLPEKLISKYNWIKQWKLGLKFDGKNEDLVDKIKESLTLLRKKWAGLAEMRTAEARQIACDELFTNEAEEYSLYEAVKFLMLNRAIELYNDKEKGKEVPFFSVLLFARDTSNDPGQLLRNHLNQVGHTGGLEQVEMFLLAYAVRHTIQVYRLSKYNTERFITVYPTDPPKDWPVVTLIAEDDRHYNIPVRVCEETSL

Kd: 0.772 µM
B3: OTULIN C129A Y91F (protein)
chain: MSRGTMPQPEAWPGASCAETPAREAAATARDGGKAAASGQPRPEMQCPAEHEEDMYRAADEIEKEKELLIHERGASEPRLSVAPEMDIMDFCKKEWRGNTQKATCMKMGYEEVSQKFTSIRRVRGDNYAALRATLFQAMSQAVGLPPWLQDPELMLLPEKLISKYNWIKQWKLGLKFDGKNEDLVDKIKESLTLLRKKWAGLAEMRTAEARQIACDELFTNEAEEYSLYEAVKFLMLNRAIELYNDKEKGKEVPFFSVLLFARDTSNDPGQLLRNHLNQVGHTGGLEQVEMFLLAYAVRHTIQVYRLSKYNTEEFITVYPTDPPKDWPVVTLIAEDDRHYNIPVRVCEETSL
